These are yes or no findings as the source states them, for the method shown. In cells and extracts the contact can be indirect. Some binding calls cover weakened binding; strength is not graded here. Sequences can lack the tags named with a protein.
Key:
[1] = target: T1, GST-LHX3a (full-length LHX3 protein) (human) (UniProt Q9UBR4); test: pull-down; GST-LHX3 fusion on glutathione-agarose resin; 200,000 cpm of 35S-labeled in vitro translated protein (rabbit reticulocyte lysate or wheat germ extract); 20 mM HEPES pH 7.9, 300 mM NaCl, 1 mM EDTA, 4 mM MgCl2, 0.02% NP-40, 10% glycerol, 1 mM ZnCl2, 1 mM DTT, 20 µg/ml ethidium bromide; 1 hour at 4°C; SDS-PAGE, autoradiography; GST alone as control; only the target purified
T1 sequence: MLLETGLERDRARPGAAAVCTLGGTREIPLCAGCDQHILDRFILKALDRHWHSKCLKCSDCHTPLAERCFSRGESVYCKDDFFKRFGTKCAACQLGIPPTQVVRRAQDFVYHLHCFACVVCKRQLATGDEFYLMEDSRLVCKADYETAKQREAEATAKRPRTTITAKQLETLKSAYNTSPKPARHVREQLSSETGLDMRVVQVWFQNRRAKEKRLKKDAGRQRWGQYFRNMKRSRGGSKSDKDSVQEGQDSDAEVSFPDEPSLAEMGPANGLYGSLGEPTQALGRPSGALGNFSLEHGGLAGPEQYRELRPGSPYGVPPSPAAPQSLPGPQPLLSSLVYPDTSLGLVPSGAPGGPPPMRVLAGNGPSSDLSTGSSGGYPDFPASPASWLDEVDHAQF

Chains of the proteins cited; added tags and fusions are not shown. Lines headed by an entry give the natural chain unless they say otherwise; changes in a name come on top. A line that says so, or that is headed by a name, gives the form on record, which may keep a tag or linker. Residues count along the entry.
TAF-1β N-terminal deletion, amino acids 133–277 (Q9EQU5, residues 145-289): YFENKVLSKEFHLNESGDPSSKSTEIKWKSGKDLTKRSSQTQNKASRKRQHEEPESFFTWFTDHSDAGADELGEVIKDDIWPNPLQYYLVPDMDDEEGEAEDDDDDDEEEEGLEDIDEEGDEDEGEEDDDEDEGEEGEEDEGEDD
Full-length TAF-1β, radiolabeled (Q9EQU5-2, form named): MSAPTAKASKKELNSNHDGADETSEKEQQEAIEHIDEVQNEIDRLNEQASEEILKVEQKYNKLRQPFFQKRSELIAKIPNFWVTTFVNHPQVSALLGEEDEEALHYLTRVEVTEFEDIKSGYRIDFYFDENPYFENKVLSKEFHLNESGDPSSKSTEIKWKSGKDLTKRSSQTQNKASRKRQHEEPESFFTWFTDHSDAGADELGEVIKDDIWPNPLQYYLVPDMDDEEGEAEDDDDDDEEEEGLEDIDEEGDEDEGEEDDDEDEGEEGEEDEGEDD
TAF-1β 1–225 (C-terminal deletion eliminating the acidic domain) (Q9EQU5-2, form named): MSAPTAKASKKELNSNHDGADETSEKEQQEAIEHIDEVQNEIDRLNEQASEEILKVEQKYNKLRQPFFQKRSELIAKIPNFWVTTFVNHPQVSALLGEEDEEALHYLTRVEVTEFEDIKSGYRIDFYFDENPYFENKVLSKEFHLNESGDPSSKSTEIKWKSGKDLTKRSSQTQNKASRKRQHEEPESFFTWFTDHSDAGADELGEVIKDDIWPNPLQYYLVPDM
UniProt O35381: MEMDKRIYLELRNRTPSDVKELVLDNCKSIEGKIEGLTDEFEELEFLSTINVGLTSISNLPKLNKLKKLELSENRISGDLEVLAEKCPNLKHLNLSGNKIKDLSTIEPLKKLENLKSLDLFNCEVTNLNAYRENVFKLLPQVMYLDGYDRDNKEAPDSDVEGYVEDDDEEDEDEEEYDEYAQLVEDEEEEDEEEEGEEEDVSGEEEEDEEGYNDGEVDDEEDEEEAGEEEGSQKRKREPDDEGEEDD
UniProt P39687: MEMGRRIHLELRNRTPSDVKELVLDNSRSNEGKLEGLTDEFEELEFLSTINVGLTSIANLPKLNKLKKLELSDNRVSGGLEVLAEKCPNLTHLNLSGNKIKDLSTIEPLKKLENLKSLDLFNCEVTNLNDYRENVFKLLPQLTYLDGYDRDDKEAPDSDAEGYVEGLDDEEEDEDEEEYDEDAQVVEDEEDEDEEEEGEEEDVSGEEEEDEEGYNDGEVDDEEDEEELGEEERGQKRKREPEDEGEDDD

[2] = target: T2, GST-human LHX3a C-terminus (residues 225–397) fusion protein (human) (UniProt Q9UBR4); test: pull-down; interaction screen repeated: GST-LHX3 C-terminus resin with precleared mouse pituitary cell or gland extracts; recovered proteins analysed by western blotting with antibodies to LANP and TAF-1β; GST alone as control; only the target purified
T2 sequence: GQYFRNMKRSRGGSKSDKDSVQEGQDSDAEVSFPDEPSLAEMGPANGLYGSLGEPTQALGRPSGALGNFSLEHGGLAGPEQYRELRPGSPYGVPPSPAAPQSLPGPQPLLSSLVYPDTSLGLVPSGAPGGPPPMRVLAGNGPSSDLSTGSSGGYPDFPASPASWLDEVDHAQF

[3] = target: T2, GST-human LHX3a C-terminus (residues 225–397) fusion protein (human); test: pull-down; GST-LHX3 fusion on glutathione-agarose resin; 200,000 cpm of 35S-labeled in vitro translated protein (rabbit reticulocyte lysate or wheat germ extract); 20 mM HEPES pH 7.9, 300 mM NaCl, 1 mM EDTA, 4 mM MgCl2, 0.02% NP-40, 10% glycerol, 1 mM ZnCl2, 1 mM DTT, 20 µg/ml ethidium bromide; 1 hour at 4°C; SDS-PAGE, autoradiography; GST alone as control; only the target purified

Substance | binding [1] | binding [2] | binding [3]
TAF-1β N-terminal deletion, amino acids 133–277 (from UniProt Q9EQU5-2 133-277) (domain or fragment) | binds | – | –
leucine rich acidic nuclear protein (LANP), endogenous mouse (from UniProt O35381 1-247) | – | binds | –
Full-length TAF-1β, radiolabeled (from UniProt Q9EQU5-2 1-277) | binds | – | binds
Full-length LANP (amino acids 1–249), radiolabeled (from UniProt P39687 1-249) | binds | – | binds
TAF-1β 1–225 (C-terminal deletion eliminating the acidic domain) (from UniProt Q9EQU5-2 1-225) (domain or fragment) | no binding | – | –

Continued, values first:

binding [1] | binding [2] | binding [3] | Substance
– | binds | – | template-activating factor-1β (TAF-1β), endogenous mouse (from UniProt Q9EQU5-2 1-277)
no binding | – | – | LANP deletion construct, amino acids 1–167 (from UniProt P39687 1-167) (domain or fragment)

— publication PMC3701669
